Measurements as given in PubChem BioAssay AID588591 (National Center for Advancing Translational Sciences (NCATS), 2011).
The campaign covered roughly 390,000 compounds. About 4,700 (1.2%) were called active. Inconclusive results (about 4%) are left out. Calls come from the whole dose curve; as a rule, active = well fitted inhibition curve with a large enough effect; inconclusive = small, poorly fitted or top-dose-only effect, or another doubt; inactive = no such curve, though single readings can be large or run the other way. The list shows a part of the results, in another mix than the full data. Where a structure was tested more than once in an assay, its records may differ in their call.

Target: DNA polymerase eta (Homo sapiens) (UniProt Q9Y253)
Assay: qHTS for Inhibitors of Polymerase Eta
Conditions: recombinant Pol eta, fluorescent DNA replication assay; series mostly up to 114 µM; activity change, negative = inhibition: at the top concentration
In short: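 Pol eta (10 nM) was preincubated with compounds for 15 min at room temperature, after which fluorescent replication substrate (50 nM final) was added to start the reaction. Fluorescence was read kinetically at 0 and 10 min.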
% is set by controls: 0 for no effect and ±100 for the full control effect; potency is the fitted concentration of half-maximal effect.

UniProt Q9Y253, sequence (Q9Y253 whole entry, looked up): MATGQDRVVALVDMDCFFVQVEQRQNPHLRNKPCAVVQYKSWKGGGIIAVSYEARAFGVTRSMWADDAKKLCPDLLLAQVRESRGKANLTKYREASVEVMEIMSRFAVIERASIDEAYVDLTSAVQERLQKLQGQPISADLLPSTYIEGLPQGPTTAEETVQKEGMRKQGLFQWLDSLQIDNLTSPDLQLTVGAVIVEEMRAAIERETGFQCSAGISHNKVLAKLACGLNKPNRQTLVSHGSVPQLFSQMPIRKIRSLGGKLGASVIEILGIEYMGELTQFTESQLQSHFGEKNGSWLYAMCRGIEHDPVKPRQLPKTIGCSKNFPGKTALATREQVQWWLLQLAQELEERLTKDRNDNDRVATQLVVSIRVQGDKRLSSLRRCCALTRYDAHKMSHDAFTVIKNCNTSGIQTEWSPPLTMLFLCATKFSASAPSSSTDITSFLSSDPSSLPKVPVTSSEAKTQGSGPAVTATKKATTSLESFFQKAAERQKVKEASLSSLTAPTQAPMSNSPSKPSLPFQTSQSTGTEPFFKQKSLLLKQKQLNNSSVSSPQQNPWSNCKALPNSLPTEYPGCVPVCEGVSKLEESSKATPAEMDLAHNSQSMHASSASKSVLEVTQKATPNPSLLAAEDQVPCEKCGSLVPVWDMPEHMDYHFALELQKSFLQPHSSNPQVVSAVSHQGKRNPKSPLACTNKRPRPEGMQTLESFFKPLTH

| Compound | activity change, negative = inhibition | Potency |
| --- | --- | --- |
| COc1ccc(C(=O)C2CCCN(C(=O)Cn3nc(C)cc3C)C2)cc1F (centres undefined) | inactive: 38.7% |  |
| O=C(Nc1nnc(S(=O)(=O)N2CCCc3ccccc32)s1)c1ccccc1Br |  | active: 79.4 µM |
| CC1=C(C)C(=O)C(CCCCC#CCCCC#CCO)=C(C)C1=O | inactive: -9.12% |  |
| C=CCC[C@@H](Cc1ccc(F)cc1)C(=O)OC[C@H](C)NC(=O)[C@H](CC=C)CC(=O)N(CCO)Cc1ccccc1 | inactive: -26.8% |  |
| COc1ccc(S(=O)(=O)Nc2ccc(O)c(Sc3nc4ccccc4s3)c2)cc1 | inactive: -7.34% |  |
| O=C(C1=C[C@H](C2CCCCC2)C[C@H](OCCCCO)O1)N1CCN(Cc2ccc3c(c2)OCO3)CC1 | inactive: -17.9% |  |
| N/C(=N\OC(=O)c1ccc(Cl)cc1Cl)c1ccncc1 | inactive: 18% |  |
| CCC1CCCCN1S(=O)(=O)c1ccc2[nH]c(=O)ccc2c1 (centres undefined) |  | active: 50.1 µM |
| Cc1ccc(NC(=O)c2nc[nH]c2C(=O)N[C@@H](C)c2ccccc2)cc1 | inactive: -12.5% |  |
| COC(=O)[C@H]1[C@H]2C[C@@H]3c4[nH]c5cc(OC)ccc5c4CCN3C[C@H]2C[C@@H](OC(=O)c2cc(OC)c(OC)c(OC)c2)[C@@H]1OC | inactive: -8.91% |  |
| Cc1cc(/C=N/NC(=O)C(O)(c2ccccc2)c2ccccc2)c(C)n1-c1ccc(C(=O)O)cc1 |  | active: 79.4 µM |
| O=C(NCCC1=CCCCC1)C1CCC(CNS(=O)(=O)c2ccccc2)CC1 (centres undefined) | inactive: 2.5% |  |
| Nc1nc(Nc2ccc(Cl)cc2)c(NC=O)c(=O)[nH]1 | inactive: 31.1% |  |
| CCCCCCN(CCCCCC)C(=O)Cc1c(-c2ccc(F)cc2)[nH]c2ccccc12 | inactive: -19.8% |  |
| C=C[C@]1(C)C=C2CC[C@H]3[C@@](C)(CCC[C@@]3(C)C(=O)O)[C@@H]2CC1 | inactive: 4.64% |  |
| CC1CC(C)CN(C(=O)Cn2cc(C=O)c3ccccc32)C1 (centres undefined) | inactive: 38.6% |  |
| Cc1ccc2c(c1)c(=O)c1ccccc1n2CCCC(=O)Nc1ccc(Cl)cc1C |  | active: 89.1 µM |
| CCOC(=O)c1sc2ncn(/N=C/N(C)C)c(=O)c2c1C | inactive: 15.5% |  |
| Cc1cc(C)cc(NS(=O)(=O)c2ccc3[nH]cc(C(=O)NCc4ccco4)c(=O)c3c2)c1 | inactive: -5.58% |  |
| CSc1ccc(CCNC(=O)c2ccc3c(c2)c(C)c(C)n3Cc2ccc(F)cc2)cc1 | inactive: 18.3% |  |

| Compound | activity change, negative = inhibition | Potency |
| --- | --- | --- |
| CCOc1cc(/C=C2/COc3ccccc3C2=O)ccc1OCC(=O)N(C)C | inactive: 8.37% |  |
| C=CCC[C@@H](Cc1ccc(F)cc1)C(=O)OC[C@H](C)NC(=O)[C@@H](CC=C)CC(=O)N(CCO)Cc1ccccc1 | inactive: -7.99% |  |
| CCC(=O)N1c2ccc(S(=O)(=O)N3CCN(c4ccccc4Cl)CC3)cc2CC1C (centres undefined) | inactive: -11% |  |
| CCOC(=O)c1c(S(=O)(=O)NCC(=O)Nc2cc(C)ccc2OC)c(C)n(C)c1C | inactive: 1.33% |  |
| Cn1c2ccccc2c2nnc(N/N=C/c3ccc(O)cc3)nc21 | inactive: 35.9% |  |
| CC(=O)c1ccc(S(=O)(=O)Nc2ccc(-c3ccc4nncn4n3)cc2)cc1 |  | active: 20 µM |
| O=C(NCc1ccco1)c1cccc2c1C(=O)c1ccc(/C=C/c3ccccc3)cc1S2(=O)=O |  | active: 14.1 µM |
| Cc1c(-c2nc(-c3ccncc3)no2)cccc1[N+](=O)[O-] | inactive: 36% |  |
| N#CC(C#N)=C1C=C2C=C(N3CCCCC3)CCC2CC1 (centres undefined) |  | active: 79.4 µM |
| CC(C)(C)c1ccc(-c2nc(SCC(=O)Nc3ccc(Cl)cc3)[nH]c(=O)c2C#N)cc1 |  | active: 28.2 µM |
| C[C@H](NC(=O)[C@@H]1Cc2ccccc2CN1)C(=O)NC1CCCCC1 | inactive: -11.7% |  |
| O=C(CSc1nnc(-c2ccco2)c(-c2ccco2)n1)c1ccccc1 |  | active: 35.5 µM |
| Cc1ccc(N(CC2=NCCN2)c2cccc(O)c2)cc1 |  | inactive |
| C=CC[C@@H](CC(=O)N(CCO)Cc1ccccc1)C(=O)N[C@@H](C)COC(=O)[C@@H](CC=C)Cc1ccc(F)cc1 | inactive: -21.8% |  |
| CCCCC(CCC(=O)Nc1ccn(-c2ccccc2)n1)C(=O)O (centres undefined) | inactive: 38% |  |
| Cc1ccc2occ(C3NC(C(=O)O)CS3)c(=O)c2c1 (centres undefined) | inactive: -19.4% |  |
| CN(C)C(CNC(=O)c1ccc(OCc2cn3ccccc3n2)cc1)c1ccco1 (centres undefined) |  | active: 39.8 µM |
| O=C(C1=C(O)C(=O)N(c2ncccn2)C1c1cccs1)c1ccco1 (centres undefined) |  | active: 79.4 µM |
| CC1=C(C(N)=O)C(c2ccco2)C(C(N)=O)=C(C)N1 | inactive: -2.31% |  |
| CN(/C=C/C(=C\C=[N+](C)c1ccccc1)OCCCS(=O)(=O)[O-])c1ccccc1 | inactive: -4.07% |  |

| Compound | activity change, negative = inhibition | Potency |
| --- | --- | --- |
| CCCCN(C)CC(O)Cn1cc(/C=C/C(=O)c2ccc(C)cc2)c2ccccc21 (centres undefined) | inactive: -20% |  |
| Cc1cccc(N=C2NC(=O)/C(=C/C=C/c3ccco3)S2)c1C |  | active: 1.78 µM |
| Cc1onc(-c2ccccc2)c1NC(=O)Nc1ccc(OC(F)F)cc1 | inactive: 30.8% |  |
| C[C@H]1CN([C@@H](C)CO)C(=O)c2cc(Br)cnc2O[C@@H]1CN(C)S(=O)(=O)c1ccccc1 | inactive: -12.7% |  |
| CCCC(c1nnnn1Cc1cccs1)N1CCN(C2CCCC2)CC1 (centres undefined) | inactive: 3.98% |  |
| CCOc1ccc(Oc2ccccc2NS(=O)(=O)c2ccc(CCC(=O)O)cc2)cc1 |  | active: 35.5 µM |
| O=C(Cc1ccc(Cl)cc1)NNC1CC(=O)N(c2ccc3ccccc3c2)C1=O (centres undefined) | inactive: 38.7% |  |
| Cc1nc2ccc(C(=O)O)cc2c2c1CC(C)S2 (centres undefined) |  | active: 2.51 µM |
| CCCn1nnc(NC(=O)/C=C/c2ccc(C(C)C)cc2)n1 | inactive: 36.1% |  |
| COc1ccc(/C=N/NC(=O)c2ccc(NC(=O)c3cccc([N+](=O)[O-])c3)cc2)c(C(=O)O)c1OC |  | active: 79.4 µM |
| CCC(CC)NC(=O)Cc1ccc(S(=O)(=O)N2CCOCC2)s1 |  | active: 10 µM |
| Oc1ccc(NCc2ccc(OCc3ccccc3)cc2)cc1 | inactive: -6.96% |  |
| CCN1/C(=C/C=C/c2oc3ccc4ccccc4c3[n+]2CC)Oc2ccc3ccccc3c21 |  | active: 31.6 µM |
| COc1ccc(/C=C/C(=O)OCC(=O)NCc2ccco2)cc1OC |  | active: 50.1 µM |
| CCN1C(=O)/C(=C2/Sc3ccccc3N2CCCS(=O)(=O)O)SC1=S | inactive: 6.33% |  |
| CC1(C)C2CCC1(C)C(Nc1ccccc1)C2 (centres undefined) | inactive: 32% |  |
| COc1ccc(C2=NS(=O)(=O)N(C)C(C(=O)Nc3cc(C)ccc3O)=C2)cc1OC | inactive: -4.71% |  |
| O=C1NC(=O)C(c2ccccc2[N+](=O)[O-])=C1Nc1ccc(O)c(Cl)c1 | inactive: -4.74% |  |
| CN1CCN(c2ccccc2NC(=O)c2ccc(F)cc2)CC1 | inactive: 31.8% |  |
